According to PubChem BioAssay AID1645887 (National Center for Advancing Translational Sciences (NCATS), 2021):
Several values for one entry are separate records, joined by “and”; a condition that tells them apart may be missing. Equal entries are not always repeated. Hit rate of the full screen: of about 16,000 compounds, about 40 (0.2%) were called active. Inconclusive results (about 1%) are left out. Calls follow the shape of the dose curve; as a rule, active = well fitted activation curve with a large enough effect; inconclusive = small, poorly fitted or top-dose-only effect, or another doubt; inactive = no such curve, though single readings can be large or run the other way. This is one part of the list.

These compounds were tested against Rap guanine nucleotide exchange factor 4 (Homo sapiens) (UniProt Q8WZA2) (assay: Validation qHTS for agonist of cAMP-regulated guanine nucleotide exchange factor 4 (EPAC2)). Settings: EPAC2 Rap1B BODIPY-GDP exchange, fluorescence; activation: stronger effect = higher value.
How it was run: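 Signal normalized against 6.5 mM cAMP as agonist control. Mix of EPAC2 (100 nM), RAP1B-BODIPY-GDP (250 nM) and GDP (50 uM) was read kinetically at 480/540 nm, every 5 min over 30 min, after 5 min room-temperature incubation with compound.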
% is scaled to controls: 0 for no effect and ±100 for the full control effect.
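Also: exchange makes BODIPY-GDP fluorescence drop when released from Rap1B; series mostly up to about 150 µM.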

Sequence of UniProt Q8WZA2 (Q8WZA2 whole entry, looked up): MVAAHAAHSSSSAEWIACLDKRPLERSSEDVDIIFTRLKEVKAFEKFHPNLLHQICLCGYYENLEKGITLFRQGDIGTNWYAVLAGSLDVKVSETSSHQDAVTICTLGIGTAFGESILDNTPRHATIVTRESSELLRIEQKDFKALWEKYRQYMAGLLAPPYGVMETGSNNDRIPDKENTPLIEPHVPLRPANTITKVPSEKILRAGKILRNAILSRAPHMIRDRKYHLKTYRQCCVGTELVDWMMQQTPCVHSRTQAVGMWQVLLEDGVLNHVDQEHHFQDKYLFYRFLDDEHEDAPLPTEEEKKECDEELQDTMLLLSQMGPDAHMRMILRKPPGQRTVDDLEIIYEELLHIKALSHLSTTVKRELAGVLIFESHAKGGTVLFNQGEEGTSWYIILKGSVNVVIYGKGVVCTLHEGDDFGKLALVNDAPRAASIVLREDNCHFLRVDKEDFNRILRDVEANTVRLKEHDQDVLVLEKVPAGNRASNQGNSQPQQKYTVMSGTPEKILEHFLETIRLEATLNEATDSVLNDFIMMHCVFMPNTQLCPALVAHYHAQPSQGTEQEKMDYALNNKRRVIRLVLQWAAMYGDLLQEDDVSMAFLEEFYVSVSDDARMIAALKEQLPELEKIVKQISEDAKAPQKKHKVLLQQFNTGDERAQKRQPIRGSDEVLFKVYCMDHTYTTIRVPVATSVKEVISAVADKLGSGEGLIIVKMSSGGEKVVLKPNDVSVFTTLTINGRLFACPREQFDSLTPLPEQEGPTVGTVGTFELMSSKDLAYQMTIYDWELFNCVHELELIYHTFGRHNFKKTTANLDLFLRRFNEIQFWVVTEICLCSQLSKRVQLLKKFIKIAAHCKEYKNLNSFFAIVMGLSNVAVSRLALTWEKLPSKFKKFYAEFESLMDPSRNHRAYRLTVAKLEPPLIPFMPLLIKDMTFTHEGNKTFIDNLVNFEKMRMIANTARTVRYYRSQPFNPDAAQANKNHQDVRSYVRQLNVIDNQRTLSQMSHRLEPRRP

activation, inactive:
CCN(CC)C(=O)c1cccc(C)c1 -4.06%, O=C(c1cnccn1)N1CCC2(CC1)CN(C(c1ccccc1)c1ccccc1)C2 3.63%, Cc1cc(Cl)ccc1OCC(=O)NCC1Cc2cc(-c3cnccn3)ccc2O1 (stereo not drawn) -4.92%, CC(C)(C)NCC(O)COc1ccc(NC(=O)NC2CCCCC2)cc1 (stereo not drawn) 8.81%, CCN(CC)C(=O)c1cccnc1 -2.53%, O=c1[nH]c(=S)[nH]c(-c2ccccc2)c1Cc1c(O)ccc2ccccc12 -29.7%, c1cncc(-c2cncnc2-n2ccnc2)c1 -13.5%, COc1cccc(Cn2c(=O)c(-c3ccccc3)nc3cnc(N4CCNCC4)nc32)c1 -23.3%, CCCN(CCC)S(=O)(=O)c1ccc(C(=O)O)cc1 -18.9% and 8.22%, CC1CC2C3CCC4=CC(=O)C=C[C@]4(C)[C@@]3(F)[C@@H](O)C[C@]2(C)[C@@]1(O)C(=O)CO (stereo partly drawn) -17.5%, Cc1ccccc1-c1cc(N2CCN(C)CC2)ncn1 -21.4%, Cn1cc(NC(=O)c2cc(NC(=O)c3cc(NC=O)cn3C)cn2C)cc1C(=O)NCCC(=N)N -12.3%, CC(O)[C@H]1CC[C@H]2[C@@H]3CC[C@@H]4C[C@@H](O)CC[C@]4(C)[C@H]3CC[C@]12C (stereo partly drawn) -1.77%, CC(=O)N1CCN(c2ccc(OC[C@H]3CO[C@](Cn4ccnc4)(c4ccc(Cl)cc4Cl)O3)cc2)CC1 -24.4% and -2.64% and -29.4%, O=C(c1ccncc1)N1CCC2(CCCN(Cc3ccccc3)C2)CC1 -2.92%, CS(=O)(=O)N1CCC2(CC1)CN(c1ccccc1)C2 -1.26%, CC(=O)[C@H]1CC[C@H]2[C@@H]3CCC4=CC(=O)CC[C@]4(C)[C@H]3CC[C@]12C -3.73% [middle of 4 runs], CC(=O)OC1CC[C@@]2(C)C3CC[C@@]4(C)C(CC5O[C@@]6(CCC(C)CO6)C(C)C54)C3CC[C@@H]2C1 (stereo partly drawn) 5.05%, CCC1(C2CCN(Cc3cc4ccccc4o3)CC2)NC(=O)N(CC2COc3ccccc3O2)C1=O (stereo not drawn) 3.7%, Cc1cnc(CNc2ncncc2-c2ccccc2C)cn1 -1.64%, CN(C)c1ncc2nc(-c3ccc(F)cc3)c(=O)n(C[C@H]3CCCO3)c2n1 0.996%, C=CCN1C(=O)C(CC(C)C)NC1=S (stereo not drawn) 7.71% and -14.7%, Cc1ccc(C(=O)Nc2cccc(-c3nc(CNC(=O)c4ccccc4-n4cccn4)c(C)o3)c2)s1 -28.5%, FC(F)(F)c1ccccc1-c1nc(NCc2cccnc2)c2ccccc2n1 1.34%, Cc1nc2sccn2c1CN1CCOc2ccc(CN3CCN(c4ccc(F)cc4)CC3)cc2C1 -1.73%, COc1cc(=O)n2c(c1C(=O)N(C)Cc1ccsc1)CCN(Cc1cnn(C)c1C)CC2 4.94%, C[C@@H](CN=[N+]=[N-])CN1CC[C@H](NC(=O)OCc2ccccc2)CCC1=O -25%, CCc1nc2cc(C(=O)N(C)CC3COCCO3)cc(NC(=O)c3ccccc3OC)c2n1C (stereo not drawn) -7.4%, O=S(=O)(c1ccccc1)N1CCC2(CCN(c3ncccn3)CC2)CC1 -3.62%, OC(CN1CCC(Cc2ccc(F)cc2)CC1)c1ccc(Cl)cc1 (stereo not drawn) -6.15% and -25.9%, CC(C)NC[C@@H](O)c1ccc(O)c(O)c1 -3.05%, CCOC(=O)[C@@]12C[C@@H]1/C(=N/O)c1ccccc1O2 -9.63%, NC(Cc1cc(I)c(Oc2cc(I)c(O)c(I)c2)c(I)c1)C(=O)O (stereo not drawn) 3.34%, CN(CCO)C(=O)c1cn(C2CCN(Cc3ccc4ccccc4c3)CC2)nn1 -10.4%, CCCCCCCC(=O)OC[C@H](CO)OC(=O)CCCCCCC -6.68%, O=C(/C=C/c1ccccc1)OC1CC(O)C2(O)C=CO[C@@H](OC3OC(CO)C(O)C(O)C3O)C12 (stereo partly drawn) -6.7%, CN1CCc2cccc3c2[C@@H]1Cc1ccc(O)c(O)c1-3 3.54%, CC(O)C(=O)O (stereo not drawn) 7.9%, CCC1CN(CC(=O)N(C)Cc2nc3ccccc3[nH]2)Cc2cc(OC)ccc2O1 (stereo not drawn) -13.2%, N#Cc1cccc(NC(=O)N2CCCC3(CCN(C(=O)c4csnn4)CC3)C2)c1 -2.59%, NC(=S)N/N=C/c1cccnc1 -19.8%, O=C(O)CCCCC(=O)O -1.74%, C[C@H]1OC(=O)CC[C@@H]2[C@]1(C)CCC1[C@@]2(C)CC[C@@]2(C)C3CC(C)(C)CC[C@]3(CO)CC[C@]12C (stereo partly drawn) -17.4%, CN1CCN(c2ncc3nc(-c4cn(C)c5ccccc45)c(=O)n(Cc4cccs4)c3n2)CC1 -4.2%, Cc1ccc(CN2[C@H](C)[C@H](c3ccccc3)OCCS2(=O)=O)cc1 -12.5%, C=CCCCCCCCCCCCc1ccco1 -34.9%, COC(=O)C[C@H]1c2cc(C(F)(F)F)ccc2S(=O)(=O)N1C1CCCCC1 -24.4%, COCC1CCCN(c2nc(CN3CCN(C(=O)c4ccco4)CC3)nc3ccccc23)C1 (stereo not drawn) 3.25%, CCOC(=O)c1ccc(-c2c(-c3ccc4c(c3)OCO4)noc2-c2ccsc2)cc1F -18.9%, CN[C@@H]1[C@@H](O)[C@@H](O[C@@H]2[C@@H](O)[C@H](O[C@H]3O[C@H](CN)[C@@H](O)[C@H](O)[C@H]3O)[C@@H](N)C[C@H]2NC(=O)C(O)CN)OC[C@]1(C)O (stereo partly drawn) -10.9%, F[Si-2](F)(F)(F)(F)F -6.73%, COc1ccccc1CN1CCOc2ccc(C(C)(O)CN(C)C)cc2C1 (stereo not drawn) -8.59%, O=c1cnc2cncnc2n1Cc1ccccc1 -8.65%, O=C(CCCCCCCCC#CI)Oc1ccccc1 3.41%, COc1cc(=O)n2c(c1C(=O)N(C)Cc1nonc1C)CCN(Cc1ccccc1Cl)CC2 -11.5%, COc1ccc(C(=O)N2CCC3(CC2)CN(Cc2ccc(C#N)cc2)C3)cc1 -2.47%, C[C@@H]1CCC(=O)N(C[C@@H](C)CSc2ccc(Br)cc2)CC1 -23.5%, O=C(CCc1ccc(O)cc1)c1c(O)cc(O)cc1O[C@@H]1O[C@H](CO)[C@@H](O)[C@H](O)[C@H]1O -5.98%, CCC1C(=O)NCCN1Cc1ccc2c(c1)CN(Cc1cccn1-c1ccc(Cl)cn1)CCO2 (stereo not drawn) -23.1%, CCNc1ncc2nc(-c3ccc(F)cc3)c(=O)n(-c3ccc(OC)cc3)c2n1 -7.29%, OC(CN1CCCC1)c1ccccc1 (stereo not drawn) -26.6%, O=S1(=O)CCOC[C@H](c2ccccc2)N1Cc1cccc(Cl)c1 -15.2%, CC1(C)CCC(=O)N2CC[C@H]3C[C@H](OC(=O)Nc4ccccc4)C[C@@H]1[C@H]32 -8.41%, COc1ccccc1-c1cc2c(c(OC)c1)OCCN(C(=O)Cn1nc(-c3ccccc3)c3ccccc3c1=O)C2 -1.72%, C=C[C@@H]1c2cc(C)ccc2N(S(=O)(=O)c2ccc(C)cc2)[C@H](c2ccc(C(=O)OC)cc2)C1(C#N)C#N -13.2%, COc1ccccc1-c1nc(N2CCN(C)CC2)c2ccccc2n1 -10.3%, O=c1cc(-c2ccccc2F)[nH]c2cc3c(cc12)OCO3 -12.3%, O=[N+]([O-])c1ccc(-c2nc(-c3ccc(F)cc3)c(-c3ccncc3)[nH]2)cc1 -12.9%, COC(=O)c1cccnc1 1.22%, CN(C)c1ncc2nc(-c3cc(F)cc(F)c3)c(=O)n(C3CC3)c2n1 4.62%, Cc1ccc(SCCN2CCC(C)CCC2=O)cc1 (stereo not drawn) -10.3%, Cc1ccccc1-c1cc(N2CCNCC2)ncn1 -11.2%, CCC(C(=O)OCCOCCN(CC)CC)c1ccccc1 (stereo not drawn) 0.955%, S=C(S)OC1CC2CC1C1CCCC21 (stereo not drawn) -42%, CC[N+]1(CC(=O)c2ccc(OC)cc2)CCCCC1 -2.07%, CNCCCC1c2ccccc2C=Cc2ccccc21 -24.5% and -11.5%, COc1cccc(-c2cncnc2NCc2ccc(OC)cc2OC)c1 -9.1%, CCNc1ncc2nc(-c3cccs3)c(=O)n(Cc3ccc(F)cc3)c2n1 10.8%, CCOC(=O)C1=C[C@@H](OC(CC)CC)[C@H](NC(C)=O)[C@@H](N)C1 3.48%, O=C(O)CC(O)C(=O)O (stereo not drawn) -7.55%, COc1ccc(CNc2ccnc(-c3ccccc3CN(C)C)n2)c(OC)c1 -7.06%, Cc1cnc(CNc2nc(-c3ccc(C(=O)N(C)C)cc3)nc3ccccc23)cn1 6.25%, O=c1c(-c2cccs2)nc2cnc(Oc3ccccc3)nc2n1-c1ccccc1 5.26%, CCCCCCC[N+](CC)(CC)CCCCc1ccc(Cl)cc1 0.691%, CCNc1ncc2ncc(=O)n(CCOC)c2n1 9.01%, CCCCCCCCN1[C@@H](CC(=O)OC)c2cc(C(F)(F)F)ccc2S1(=O)=O -24.1%, COc1ccccc1CNc1cc(-c2ccccc2CN(C)C)ncn1 -0.407%, NCCC(O)C(=O)NC1C[C@@H](N)[C@H](O[C@@H]2OC(CN)C(O)C(O)C2O)C(O)[C@H]1O[C@H]1OC(CO)C(O)C(N)C1O (stereo partly drawn) -0.102%
